Laboratory results reported in the supplement of paper PMC4723716.
The full ranking holds about 3,600 compounds; the median of “viability index relative to DMSO control” is about 0.81, and the lowest 2% start at about 0.13. This is one part of the list.

test system: Plasmodium falciparum NF54 stage V gametocytes; test: viability index relative to DMSO control (fraction); higher = less gametocyte killing; conditions: 1.25 µM, incubation time: 72 h
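Note: 384-well serum-free SaLSSA: MitoTracker Red CMXRos staining with saponin lysis, high-content imaging, treated-well particle count divided by plate-mean count of DMSO wells.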

SMILES	viability index
COc1ccc(-c2noc(N3CCc4ccccc4C3)n2)cc1	1.04
Cc1ccc(C)c(Nc2nc(NCc3ccco3)c3ccccc3n2)c1	0.938
O=C(NCCN1CCOCC1)c1ccc(Cl)cc1	0.771
COC(=O)C1=C(C)NC(=Cc2cc(C)n(-c3ccccc3F)c2C)C1=O	0.942
CCOc1ccc2nc(C)cc(Nc3ccc(C)c(Cl)c3)c2c1	0.852
COc1cccc(NC(=O)Cn2c(C)c(C(C)=O)c3ccccc32)c1	0.645
COc1ccc(NC(=O)Cn2c(C)c(C=O)c3ccccc32)cc1	0.906
Cc1ccc(C#N)c(SCc2nnc(-c3ccc(Cl)cc3)o2)n1	0.552
C[n+]1ccc(C=Cc2ccc(Br)cc2)cc1	0.793
Cc1ccc2c(c1)NC(c1ccc(F)cc1)C1=C(CC(c3ccccc3)CC1=O)N2 (stereo unspecified)	0.649
CCc1ccc(NC(=O)c2sc3nc4c(c(-c5ccco5)c3c2N)CCCC4)cc1	0.587
O=C(NCC1CCCO1)c1cc(S(=O)(=O)N2CCCCC2)c[nH]1 (stereo unspecified)	1.08
Clc1ccc2c(N3CCCC3)ccnc2c1	0.837
O=[N+]([O-])c1cc([N+](=O)[O-])c2cccnc2c1Nc1cccc2cccnc12	0.209
COc1cccc(C(NC(=O)c2ccccc2)c2ccc3cccnc3c2O)c1 (stereo unspecified)	0.706
Cc1nc2ccccc2c(O)c1CC=C(Cl)Cl	0.699
O=C1CC(c2ccccc2)CC2=C1C(c1cc(F)ccc1F)Nc1ccccc1N2 (stereo unspecified)	0.703
Cc1ccc(NC2=C(c3ccc(C(F)(F)F)cc3)C(=O)c3ccccc32)cc1C	1.01
CC(Nc1cc(C)ccn1)=C(C#N)C#N	1.04
CCN(CC)c1ccc(NC(=O)c2cccs2)cc1	0.614
CCOC(=O)N1CCC(NC(=O)c2c(C)nn(-c3cccc(C)c3)c2-n2cccc2)CC1	1.05

SMILES	viability index
CCOC(=O)C1=C(C)NC2=C(C(=O)CC(c3ccc(OC)c(OC)c3)C2)C1c1ccc(Cl)c(Cl)c1 (stereo unspecified)	0.71
Cc1cc(NCCCN(C)C)c2ccccc2n1	0.888
CCOC(=O)c1cnc2c3c(ccc2c1O)CCCC3	0.853
COc1ccc(C=C2SC(=Nc3ccccc3OC)NC2=O)cc1	0.677
CN1CCC(CCNCc2ccc(OCC(O)CN(C)Cc3ccccc3)cc2)CC1 (stereo unspecified)	0.856
CCC(C(=O)N1CCN(Cc2ccccc2)CC1)c1ccccc1 (stereo unspecified)	0.725
COc1ccc(C2CC(=O)C3=C(C2)NC(C)=C(C(=O)OC(C)C)C3c2ccccc2F)cc1OC (stereo unspecified)	0.448
COc1ccc(C2CC(=O)C3=C(C2)NC(C)=C(C(=O)OC(C)C)C3c2ccccc2Br)cc1OC (stereo unspecified)	0.363
C[n+]1cccc(C=C2c3ccccc3-c3ncccc32)c1	0.663
COc1cc(C=CC(=O)Nc2ccc3nc(N4CCN(c5ncccn5)CC4)cc(C)c3c2)cc(OC)c1OC	0.863
Cc1ccc(-c2nc(CS(=O)(=O)CC(=O)NC3CCC(C)CC3)c(C)o2)cc1 (stereo unspecified)	0.968
O=C(Nc1cc(C(F)(F)F)cc(C(F)(F)F)c1)Nc1ccc(Cl)c(Cl)c1	0.892
CC12C(=O)N(c3cccc(C(=O)O)c3)C(=O)C1C1c3ccccc3C2c2ccccc21 (stereo unspecified)	1.15
Nc1ccnc2cc(Cl)ccc12	1.06
O=C(Nc1ccc2oc(-c3ccccc3F)nc2c1)c1ccc([N+](=O)[O-])o1	0.128
CCOc1cc(-c2nnc3[nH]c(=O)n(C)c(=O)c3n2)ccc1OC(C)C	0.811
CC(c1nc2ccc(Cl)cc2c(=O)n1C)N1CCN(S(=O)(=O)c2cccc3ccccc23)CC1 (stereo unspecified)	0.929
Fc1ccc(CCNc2ncnc3c2[nH]c2ccccc23)cc1	0.605
COc1ccc(CN2CC(=O)N(c3ccc(Cl)cc3)C2=S)cc1OC	1.28
Cc1ccccc1NC(=O)N1CCN(C(=O)c2nc(-c3ccccc3)nc(C)c2C(=O)OC(C)C)CC1C (stereo unspecified)	0.476
O=C(COc1cccc2ccccc12)NC1CCS(=O)(=O)C1 (stereo unspecified)	1.06

SMILES	viability index
COc1cccc(C(=O)NC(c2ccc(Cl)cc2)c2cc(Cl)c3cccnc3c2O)c1 (stereo unspecified)	0.523
CSc1ccc(C=CC(=O)NC(=O)c2ccccc2O)cc1	0.661
CCOc1ccc(C2=NC3(CCN(C(C)C)CC3)NC(c3cc(Cl)ccc3O)C2)cc1 (stereo unspecified)	0.892
COc1ccc(C=C2SC(=Nc3ccccc3)NC2=O)c(OC)c1	0.815
Clc1cccc(CCNC2CCN(CCc3ccccc3)CC2)c1	1.16
COC(=O)C1=C(C)NC2=C(C(=O)CC(c3ccccc3)C2)C1c1ccc(Cl)cc1 (stereo unspecified)	0.709
COc1ccc(C(=O)C[N+]2=C(C)c3ccc(C)n3CC2)cc1	0.649
Cc1ccc(C)c(-c2csc(Nc3ccc(C)c(C)c3)n2)c1	0.568
CC1CN(C(=O)CCCSc2nnc(Cc3ccccc3)n2-c2ccc(Cl)c(Cl)c2)CC(C)O1 (stereo unspecified)	0.548
Cc1nn(CC(O)Cn2c3ccc(Cl)cc3c3cc(Cl)ccc32)c(C)c1Br (stereo unspecified)	0.351
CN1CCC(NCCc2ccc(Cl)cc2)CC1	0.853
CSc1nnc(NC(=O)C2CC2)s1	0.736
O=C(CCc1ccccc1)c1ccccc1OCC(O)CN1CCCCC1 (stereo unspecified)	0.6
CCCCN1C(=O)/C(=C2/Sc3ccccc3N2C)SC1=Nc1cc(C)ccc1C	1.04
FC(F)(F)c1cccc(-c2nc3c(s2)CN(C2CCCC2)CC3)c1	0.577
O=C(C1CC1)N1CCN=C1SCc1ccc(C(F)(F)F)cc1	0.545
O=S(=O)(c1ccc(Cl)cc1)N1CCN(C(=S)NCc2ccco2)CC1	0.959
O=c1oc(-c2ccccc2F)nc2sc3c(c12)CCCC3	0.823
Cc1cc(NS(=O)(=O)c2ccc(N=Cc3ccc(C#N)cc3)cc2)no1	0.817
